The source gives many values for each of these; only a part stands here.
Tested on: 766 cancer cell lines
Assay: Large-scale cell-line viability measurements (766 cancer cell lines, 72 h, AUC)
Type: cell-based, human
Description: Cell lines were treated for 72 hours with concentrations ranging from 66.4 μM-2 nM in 2-fold step dilutions.
To characterize cellular sensitivity to DNMDP further, 766 genomically characterized cancer cell lines were screened for DMNDP sensitivity at concentrations ranging from 66.4 μM to 2 nM in 2-fold dilution steps for 72 hours. From these cell lines, 22 cell lines were categorized as sensitive with a robust Z-score lower than −4, which represented multiple lineages including multiple melanoma cell lines, amongst others (Table 1).
The sensitivity of […] cancer cell lines (CCLs) was measured drawn from 23 different lineages to DNMDP. Each cell line was plated in its preferred media in white opaque 1536-plates at a density of 500 cells/well. After incubating overnight, DNMDP was added by acoustic transfer at 16 concentrations ranging from 66.4 μM-2 nM in 2-fold steps in duplicate (Labcyte Echo 555, Labcyte Inc., Sunnyvale, Calif.). After 72 hours treatment, cellular ATP levels were measured as a surrogate for viability (CELLTITERGLO®, Promega Corporation, Madison, Wis.) according to manufacturer's protocols using a ViewLux Microplate Imager (PerkinElmer, Waltham, Mass.) and normalized to background (media-only) and vehicle (DMSO)-treated control wells.
Concentration response curves were fit using nonlinear fits to 2- or 3-parameter sigmoid functions through all 16 concentrations with the low-concentration asymptote set to the DMSO-normalized value, and an optimal 8-point dose curve spanning the range of compound-sensitivity was identified. The area under the 8-point dose curve (AUC) was computed by numeric integration as a metric for sensitivity for further analysis. Similar sensitivity measurements have been obtained for a collection of 480 other compounds, enabling analyses that identify cell lines responding uniquely to DNMDP (see Broad Institute Cancer Therapeutics Response Portal, a dataset to identify comprehensively relationships between genetic and lineage features of human cancer cell lines and small-molecule sensitivities for complete list of compounds).

[1] = cell line SNU738 (CENTRAL NERVOUS SYSTEM)
[2] = cell line SNU878, LIVER, 72 hours
[3] = cell line SNU886, LIVER, 72 hours
[4] = cell line SNU899 (UPPER AERODIGESTIVE TRACT)
[5] = cell line SNU1033 (LARGE INTESTINE)
[6] = cell line SNU1040, LARGE INTESTINE, 72 hours
[7] = cell line SNU1041 (UPPER AERODIGESTIVE TRACT)
[8] = cell line SNU1066 (UPPER AERODIGESTIVE TRACT)
[9] = cell line SNU1076 (UPPER AERODIGESTIVE TRACT)
[10] = cell line SNU1077 (ENDOMETRIUM)
[11] = cell line SNU1079, BILIARY TRACT, 72 hours
[12] = cell line SNU1105 (CENTRAL NERVOUS SYSTEM)
[13] = cell line SNU1196 (BILIARY TRACT)
[14] = cell line SNUC2A, LARGE INTESTINE, 72 hours
[15] = cell line SNUC4, LARGE INTESTINE, 72 hours
[16] = cell line SNUC5 (LARGE INTESTINE)
[17] = cell line SR786 (HAEMATOPOIETIC AND LYMPHOID TISSUE)
[18] = cell line SUDHL4 (HAEMATOPOIETIC AND LYMPHOID TISSUE)
[19] = cell line SUDHL5, HAEMATOPOIETIC AND LYMPHOID TISSUE, 72 hours
[20] = cell line SUDHL6 (HAEMATOPOIETIC AND LYMPHOID TISSUE)
[21] = cell line SUDHL8 (HAEMATOPOIETIC AND LYMPHOID TISSUE)
[22] = cell line SUDHL10, HAEMATOPOIETIC AND LYMPHOID TISSUE, 72 hours
[23] = cell line SUPHD1 (HAEMATOPOIETIC AND LYMPHOID TISSUE)
[24] = cell line SUPT1, HAEMATOPOIETIC AND LYMPHOID TISSUE, 72 hours
[25] = cell line SUPT11 (HAEMATOPOIETIC AND LYMPHOID TISSUE)
[26] = cell line SW48 (LARGE INTESTINE)
[27] = cell line SW403 (LARGE INTESTINE)
[28] = cell line SW620 (LARGE INTESTINE)
[29] = cell line SW1088 (CENTRAL NERVOUS SYSTEM)
[30] = cell line SW1353, BONE, 72 hours
[31] = cell line T84 (LARGE INTESTINE)
[32] = cell line TCCSUP (URINARY TRACT)
[33] = cell line TE441T, SOFT TISSUE, 72 hours
[34] = cell line TF1 (HAEMATOPOIETIC AND LYMPHOID TISSUE)
[35] = cell line TM31 (CENTRAL NERVOUS SYSTEM)
[36] = cell line TOLEDO (HAEMATOPOIETIC AND LYMPHOID TISSUE)
[37] = cell line U87MG (CENTRAL NERVOUS SYSTEM)
[38] = cell line U251MG (CENTRAL NERVOUS SYSTEM)
[39] = cell line UMUC3 (URINARY TRACT)
[40] = cell line WSUDLCL2 (HAEMATOPOIETIC AND LYMPHOID TISSUE)
[41] = cell line X42MGBA (CENTRAL NERVOUS SYSTEM)
[42] = cell line X253J (URINARY TRACT)
[43] = cell line X253JBV (URINARY TRACT)
[44] = cell line X639V (URINARY TRACT)
[45] = cell line X5637, URINARY TRACT, 72 hours
[46] = cell line YD15 (SALIVARY GLAND)
[47] = cell line YD38 (UPPER AERODIGESTIVE TRACT)
[48] = cell line YKG1, CENTRAL NERVOUS SYSTEM, 72 hours

## CCN(CC)c1ccc(C2=NNC(=O)CC2C)cc1[N+](=O)[O-] (centres unmarked) [DNMDP, 6-(4-(diethylamino)-3-nitrophenyl)-5-methyl-4,5-dihydropyridazin-3(2H)-one]
Cell line SNU668 (STOMACH)
  Robust Z-score: 0.3967
Cell line SNU719 (STOMACH)
  DNMDP AUC: 6.9544
  Robust Z-score: 0.3356
[1]
  DNMDP AUC: 6.9945
  Robust Z-score: 0.3777
Cell line SNU840 (OVARY)
  DNMDP AUC: 6.8651
  Robust Z-score: 0.2419
[2]
  DNMDP AUC: 7.2238
  Robust Z-score: 0.6184
[3]
  DNMDP AUC: 7.3032
  Robust Z-score: 0.7017
[4]
  DNMDP AUC: 6.662
  Robust Z-score: 0.02871
[5]
  DNMDP AUC: 6.6873
  Robust Z-score: 0.05526
[6]
  DNMDP AUC: 7.3288
  Robust Z-score: 0.7286
[7]
  DNMDP AUC: 6.6307
  Robust Z-score: −0.004146
[8]
  DNMDP AUC: 6.5779
  Robust Z-score: −0.05957
[9]
  DNMDP AUC: 6.7574
  Robust Z-score: 0.1288
[10]
  DNMDP AUC: 6.6342
  Robust Z-score: −0.0004723
[11]
  DNMDP AUC: 7.2463
  Robust Z-score: 0.642
[12]
  DNMDP AUC: 6.8918
  Robust Z-score: 0.2699
[13]
  DNMDP AUC: 6.5947
  Robust Z-score: −0.04193
[14]
  DNMDP AUC: 7.6165
  Robust Z-score: 1.031
[15]
  DNMDP AUC: 7.2927
  Robust Z-score: 0.6907
[16]
  DNMDP AUC: 6.939
  Robust Z-score: 0.3195
Cell line SQ1 (LUNG)
  DNMDP AUC: 6.6945
  Robust Z-score: 0.06282
[17]
  DNMDP AUC: 6.5751
  Robust Z-score: −0.06251
Cell line SU8686 (PANCREAS)
  DNMDP AUC: 6.8851
  Robust Z-score: 0.2629
[18]
  DNMDP AUC: 7.0162
  Robust Z-score: 0.4005
[19]
  DNMDP AUC: 7.3508
  Robust Z-score: 0.7517
[20]
  DNMDP AUC: 6.887
  Robust Z-score: 0.2649
[21]
  DNMDP AUC: 6.8258
  Robust Z-score: 0.2006
[22]
  DNMDP AUC: 7.7977
  Robust Z-score: 1.221
[23]
  DNMDP AUC: 6.5802
  Robust Z-score: −0.05715
[24]
  DNMDP AUC: 7.167
  Robust Z-score: 0.5588
[25]
  DNMDP AUC: 6.695
  Robust Z-score: 0.06335
[26]
  DNMDP AUC: 6.9505
  Robust Z-score: 0.3315
[27]
  DNMDP AUC: 6.8208
  Robust Z-score: 0.1954
[28]
  DNMDP AUC: 6.5658
  Robust Z-score: −0.07227
[29]
  DNMDP AUC: 7.0786
  Robust Z-score: 0.466
Cell line SW1271 (LUNG)
  DNMDP AUC: 7.0143
  Robust Z-score: 0.3985
[30]
  DNMDP AUC: 7.1985
  Robust Z-score: 0.5918
Cell line SW1573 (LUNG)
  DNMDP AUC: 6.8813
  Robust Z-score: 0.2589
Cell line SW1990 (PANCREAS)
  DNMDP AUC: 6.7019
  Robust Z-score: 0.07059
Cell line T24 (URINARY TRACT)
  DNMDP AUC: 6.8383
  Robust Z-score: 0.2138
Cell line T47D (BREAST)
  DNMDP AUC: 6.5764
  Robust Z-score: −0.06114
[31]
  DNMDP AUC: 6.8791
  Robust Z-score: 0.2566
Cell line TCCPAN2 (PANCREAS)
  DNMDP AUC: 6.9184
  Robust Z-score: 0.2978
[32]
  DNMDP AUC: 6.7056
  Robust Z-score: 0.07447
Cell line TE1 (OESOPHAGUS)
  DNMDP AUC: 6.6158
  Robust Z-score: −0.01979
Cell line TE4 (OESOPHAGUS)
  DNMDP AUC: 6.707
  Robust Z-score: 0.07594
Cell line TE5 (OESOPHAGUS)
  DNMDP AUC: 6.6355
  Robust Z-score: 0.0008922
Cell line TE6 (OESOPHAGUS)
  DNMDP AUC: 6.5328
  Robust Z-score: −0.1069
Cell line TE9 (OESOPHAGUS)
  DNMDP AUC: 6.8154
  Robust Z-score: 0.1897
Cell line TE10 (OESOPHAGUS)
  DNMDP AUC: 6.6127
  Robust Z-score: −0.02304
Cell line TE11 (OESOPHAGUS)
  DNMDP AUC: 6.7063
  Robust Z-score: 0.07521
Cell line TE14 (OESOPHAGUS)
  DNMDP AUC: 6.6652
  Robust Z-score: 0.03207
[33]
  DNMDP AUC: 7.1772
  Robust Z-score: 0.5695
Cell line TE617T (SOFT TISSUE)
  DNMDP AUC: 6.782
  Robust Z-score: 0.1547
[34]
  DNMDP AUC: 6.9682
  Robust Z-score: 0.3501
[35]
  DNMDP AUC: 6.6885
  Robust Z-score: 0.05652
[36]
  DNMDP AUC: 6.5926
  Robust Z-score: −0.04414
Cell line TT2609C02 (THYROID)
  DNMDP AUC: 6.7014
  Robust Z-score: 0.07006
Cell line TT (THYROID)
  DNMDP AUC: 7.0183
  Robust Z-score: 0.4027
Cell line TUHR4TKB (KIDNEY)
  DNMDP AUC: 7.0861
  Robust Z-score: 0.4739
Cell line TYKNU (OVARY)
  DNMDP AUC: 6.6296
  Robust Z-score: −0.005301
Cell line U2OS, BONE, 72 hours
  DNMDP AUC: 7.3013
  Robust Z-score: 0.6997
[37]
  DNMDP AUC: 6.7949
  Robust Z-score: 0.1682
[38]
  DNMDP AUC: 7.091
  Robust Z-score: 0.479
[39]
  DNMDP AUC: 6.6662
  Robust Z-score: 0.03312
Cell line VMRCLCD (LUNG)
  DNMDP AUC: 6.6718
  Robust Z-score: 0.03899
Cell line VMRCRCW (KIDNEY)
  DNMDP AUC: 6.9222
  Robust Z-score: 0.3018
Cell line VMRCRCZ (KIDNEY)
  DNMDP AUC: 6.6107
  Robust Z-score: −0.02514
Cell line WM115 (SKIN)
  DNMDP AUC: 6.8396
  Robust Z-score: 0.2151
Cell line WM2664 (SKIN)
  DNMDP AUC: 6.8521
  Robust Z-score: 0.2282
[40]
  DNMDP AUC: 6.6801
  Robust Z-score: 0.04771
Cell line X22RV1 (PROSTATE)
  DNMDP AUC: 6.9813
  Robust Z-score: 0.3639
[41]
  DNMDP AUC: 6.5397
  Robust Z-score: −0.09966
[42]
  DNMDP AUC: 6.8153
  Robust Z-score: 0.1896
[43]
  DNMDP AUC: 6.6694
  Robust Z-score: 0.03648
[44]
  DNMDP AUC: 6.6635
  Robust Z-score: 0.03028
Cell line X769P (KIDNEY)
  DNMDP AUC: 6.7486
  Robust Z-score: 0.1196
Cell line X786O (KIDNEY)
  DNMDP AUC: 6.9057
  Robust Z-score: 0.2845
[45]
  DNMDP AUC: 7.5183
  Robust Z-score: 0.9275
Cell line X2313287 (STOMACH)
  DNMDP AUC: 6.6886
  Robust Z-score: 0.05663
Cell line YAPC (PANCREAS)
  DNMDP AUC: 6.6485
  Robust Z-score: 0.01454
[46]
  DNMDP AUC: 6.8858
  Robust Z-score: 0.2636
[47]
  DNMDP AUC: 7.06
  Robust Z-score: 0.4465
[48]
  DNMDP AUC: 7.2376
  Robust Z-score: 0.6329
Cell line ZR751 (BREAST)
  DNMDP AUC: 7.054
  Robust Z-score: 0.4402

Reference: patent publication US11207320B2, “Compositions and methods for cancer expressing PDE3A or SLFN12” (The Broad Institute, Inc., priority 2015, dated 2021)
